Measured values published in the supplement of paper PMC8728848.
The other results are listed elsewhere or left out.

What was measured:
Assay in all cases: glycan array binding signal (z-score within array); higher = stronger binding
Conditions in all cases: glycan notation: IUPAC condensed, linker removed
[1] = target: Fuc(a1-3)[GalNAc(b1-4)]GlcNAc
Procedure, shortened: (§1)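 The binding signal is a Z-score computed within each array and averaged over linkers. Arrays of the same protein sequence at different concentrations or buffers were also averaged together. Data originate from 3228 arrays in the Consortium for Functional Glycomics database, kept only where the protein sequence was available.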

Fuc(a1-4)GlcNAc = target: Fuc(a1-4)GlcNAc
Procedure, shortened: as §1

Fuc(b1-3)GlcNAc = target: Fuc(b1-3)GlcNAc
Procedure, shortened: as §1

Gal(a1-2)Gal = target: Gal(a1-2)Gal
Procedure, shortened: as §1

Gal(a1-3)Gal = target: Gal(a1-3)Gal
Procedure, shortened: as §1

Gal(a1-3)Gal(b1-3)GlcNAc = target: Gal(a1-3)Gal(b1-3)GlcNAc
Procedure, shortened: as §1

Gal(a1-3)Gal(b1-4)Glc = target: Gal(a1-3)Gal(b1-4)Glc
Procedure, shortened: as §1

Gal(a1-3)Gal(b1-4)GlcNAc = target: Gal(a1-3)Gal(b1-4)GlcNAc
Procedure, shortened: as §1

[2] = target: Gal(a1-3)Gal(b1-4)[Fuc(a1-3)]GlcNAc
Procedure, shortened: as §1

Gal(a1-3)GalNAc = target: Gal(a1-3)GalNAc
Procedure, shortened: as §1

[3] = target: Gal(a1-3)[Gal(a1-4)]Gal(b1-4)GlcNAc
Procedure, shortened: as §1

Gal(a1-4)Gal(b1-4)Glc = target: Gal(a1-4)Gal(b1-4)Glc
Procedure, shortened: as §1

Gal(a1-4)Gal(b1-4)GlcNAc = target: Gal(a1-4)Gal(b1-4)GlcNAc
Procedure, shortened: as §1

Gal(a1-4)GlcNAc = target: Gal(a1-4)GlcNAc
Procedure, shortened: as §1

Gal(a1-6)Glc = target: Gal(a1-6)Glc
Procedure, shortened: as §1

Gal(b1-2)Gal = target: Gal(b1-2)Gal
Procedure, shortened: as §1

Gal(b1-3)Gal = target: Gal(b1-3)Gal
Procedure, shortened: as §1

Gal(b1-3)Gal(b1-4)GlcNAc = target: Gal(b1-3)Gal(b1-4)GlcNAc
Procedure, shortened: as §1

Gal(b1-3)GalNAc = target: Gal(b1-3)GalNAc
Procedure, shortened: as §1

[4] = target: Gal(b1-3)GalNAc(b1-3)Gal(a1-4)Gal(b1-4)Glc
Procedure, shortened: as §1

[5] = target: Gal(b1-3)GalNAc(b1-4)Gal(b1-4)Glc
Procedure, shortened: as §1

[6] = target: Gal(b1-3)GalNAc(b1-4)[Neu5Ac(a2-3)]Gal(b1-4)Glc
Procedure, shortened: as §1

Gal(b1-3)GlcNAc = target: Gal(b1-3)GlcNAc
Procedure, shortened: as §1

[7] = target: Gal(b1-3)GlcNAc(b1-2)Man(a1-3)[Gal(b1-3)GlcNAc(b1-2)Man(a1-6)]Man(b1-4)GlcNAc(b1-4)GlcNAc
Procedure, shortened: as §1

[8] = target: Gal(b1-3)GlcNAc(b1-3)Gal(b1-3)GlcNAc
Procedure, shortened: as §1

[9] = target: Gal(b1-3)GlcNAc(b1-3)Gal(b1-4)Glc
Procedure, shortened: as §1

[10] = target: Gal(b1-3)GlcNAc(b1-3)Gal(b1-4)GlcNAc
Procedure, shortened: as §1

[11] = target: Gal(b1-3)[Fuc(a1-4)]GlcNAc
Procedure, shortened: as §1

[12] = target: Gal(b1-3)[Fuc(a1-4)]GlcNAc(b1-3)Gal(b1-3)[Fuc(a1-4)]GlcNAc
Procedure, shortened: as §1

[13] = target: Gal(b1-3)[Fuc(a1-4)]GlcNAc(b1-3)Gal(b1-4)GlcNAc
Procedure, shortened: as §1

[14] = target: Gal(b1-3)[Fuc(a1-4)]GlcNAc(b1-3)Gal(b1-4)[Fuc(a1-3)]GlcNAc
Procedure, shortened: as §1

[15] = target: Gal(b1-3)[GlcNAc(b1-6)]GalNAc
Procedure, shortened: as §1

[16] = target: Gal(b1-3)[Neu5Ac(a2-6)]GalNAc
Procedure, shortened: as §1

[17] = target: Gal(b1-3)[Neu5Ac(a2-6)]GlcNAc(b1-6)Gal(b1-4)Glc
Procedure, shortened: as §1

[18] = target: Gal(b1-3)[Neu5Ac(b2-6)]GalNAc
Procedure, shortened: as §1

[19] = target: Gal(b1-4)GalNAc(a1-3)[Fuc(a1-2)]Gal(b1-4)GlcNAc
Procedure, shortened: as §1

[20] = target: Gal(b1-4)GalNAc(b1-3)[Fuc(a1-2)]Gal(b1-4)GlcNAc
Procedure, shortened: as §1

Gal(b1-4)Glc = target: Gal(b1-4)Glc
Procedure, shortened: as §1

Gal(b1-4)Glc6S = target: Gal(b1-4)Glc6S
Procedure, shortened: as §1

Gal(b1-4)GlcNAc = target: Gal(b1-4)GlcNAc
Procedure, shortened: as §1

[21] = target: Gal(b1-4)GlcNAc(a1-6)Gal(b1-4)GlcNAc
Procedure, shortened: as §1

[22] = target: Gal(b1-4)GlcNAc(b1-2)Man(a1-3)[Gal(b1-4)GlcNAc(b1-2)Man(a1-6)]Man(b1-4)GlcNAc(b1-4)GlcNAc
Procedure, shortened: as §1

[23] = target: Gal(b1-4)GlcNAc(b1-3)Gal(b1-3)GlcNAc
Procedure, shortened: as §1

[24] = target: Gal(b1-4)GlcNAc(b1-3)Gal(b1-4)Glc
Procedure, shortened: as §1

[25] = target: Gal(b1-4)GlcNAc(b1-3)Gal(b1-4)GlcNAc
Procedure, shortened: as §1

B1: SLR2P2A3 (Tachypleus tridentatus), TAL2_TACTR (protein)
chain: MEKGTPPTHDSDNWMGRAKKIGNGGWNQFQFLFFDPNGYLYAVSKDKLYKASPPQSDTDNWIARATEIGSGGWSGSKFLFFHPNGYLYAVHGQRLYKALPPVSNQD
glycan array binding signal (z-score) [1]: 0.139 | glycan array binding signal (z-score) (Fuc(a1-4)GlcNAc): -0.416 | glycan array binding signal (z-score) (Fuc(b1-3)GlcNAc): 0.027 | glycan array binding signal (z-score) (Gal(a1-2)Gal): -0.068 | glycan array binding signal (z-score) (Gal(a1-3)Gal): -0.317 | glycan array binding signal (z-score) (Gal(a1-3)Gal(b1-3)GlcNAc): -0.279 | glycan array binding signal (z-score) (Gal(a1-3)Gal(b1-4)Glc): -0.17 | glycan array binding signal (z-score) (Gal(a1-3)Gal(b1-4)GlcNAc): -0.211 | glycan array binding signal (z-score) [2]: -0.175 | glycan array binding signal (z-score) (Gal(a1-3)GalNAc): 0.009 | glycan array binding signal (z-score) [3]: 0.006 | glycan array binding signal (z-score) (Gal(a1-4)Gal(b1-4)Glc): 0.014 | glycan array binding signal (z-score) (Gal(a1-4)Gal(b1-4)GlcNAc): -0.115 | glycan array binding signal (z-score) (Gal(a1-4)GlcNAc): 0.132 | glycan array binding signal (z-score) (Gal(a1-6)Glc): 0.235 | glycan array binding signal (z-score) (Gal(b1-2)Gal): -0.307 | glycan array binding signal (z-score) (Gal(b1-3)Gal): -0.234 | glycan array binding signal (z-score) (Gal(b1-3)Gal(b1-4)GlcNAc): -0.347 | glycan array binding signal (z-score) (Gal(b1-3)GalNAc): -0.012 | glycan array binding signal (z-score) [4]: 1.24 | glycan array binding signal (z-score) [5]: -0.537 | glycan array binding signal (z-score) [6]: -0.513 | glycan array binding signal (z-score) (Gal(b1-3)GlcNAc): -0.372 | glycan array binding signal (z-score) [7]: -0.043 | glycan array binding signal (z-score) [8]: -0.344 | glycan array binding signal (z-score) [9]: 0.014 | glycan array binding signal (z-score) [10]: 0.128 | glycan array binding signal (z-score) [11]: -0.021 | glycan array binding signal (z-score) [12]: -0.635 | glycan array binding signal (z-score) [13]: 0.113 | glycan array binding signal (z-score) [14]: 0.094 | glycan array binding signal (z-score) [15]: -0.374 | glycan array binding signal (z-score) [16]: -0.332 | glycan array binding signal (z-score) [17]: 0.285 | glycan array binding signal (z-score) [18]: -0.092 | glycan array binding signal (z-score) [19]: -0.211 | glycan array binding signal (z-score) [20]: 0.214 | glycan array binding signal (z-score) (Gal(b1-4)Glc): 2.79 | glycan array binding signal (z-score) (Gal(b1-4)Glc6S): 0.015 | glycan array binding signal (z-score) (Gal(b1-4)GlcNAc): -0.206 | glycan array binding signal (z-score) [21]: -0.223 | glycan array binding signal (z-score) [22]: -0.011 | glycan array binding signal (z-score) [23]: 0.027 | glycan array binding signal (z-score) [24]: -0.197 | glycan array binding signal (z-score) [25]: -0.306
